# Measured values published in PMC5391139, “Ataxin‐3 consolidates the MDC1‐dependent DNA double‐strand break response by counteracting the SUMO‐targeted ubiquitin ligase RNF4” (The EMBO Journal, 2017).
# B1: recombinant SUMO1 immobilized on agarose beads (natural protein)
# chain: not shown
# notes: SUMO1, the ubiquitin-like modifier; In the DUB assay a soluble recombinant His-SUMO1 (Enzo Life Sciences) was used instead of the beads; also called SUMO1 beads; source: bought: Enzo Life Sciences (recombinant, immobilized on agarose beads)
# Biological target: T1, recombinant ataxin‐3 (UniProt P54252 1-361)
# T1 construct: the DUB assay names 'recombinant GST-ataxin-3'; It may be the same GST fusion; also called GST‐ataxin‐3 (in the DUB assay); source: recombinant
# Experiment: pull-down; recombinant SUMO1 immobilized on agarose beads incubated with 1 ug recombinant ataxin-3 for 2 h at 4°C; buffer A (50 mM Tris pH 7.5, 150 mM NaCl, 1 mM DTT, 0.5% NP-40); six washes
# Conditions: both partners purified
binder,measurement,value
B1,binding result,binds
